# Test results from the supplement of paper PMC8728848.
# Some of the results follow.
# B1: Gal 8 (Homo sapiens) (protein)
# chain: MLSLNNLQNIIYNPVIPYVGTIPDQLDPGTLIVICGHVPSDADRFQVDLQNGSSVKPRADVAFHFNPRFKRAGCIVCNTLINEKWGREEITYDTPFKREKSFEIVIMVLKDKFQVAVNGKHTLLYGHRIGPEKIDTLGIYGKVNIHSIGFSFSSDLQSTQASSLELTEISRENVPKSGTPQLQTVSPSWDLQGHGSETFCSVLWTRVFLEIAFCRPIGLTVASFQSLPFAARLNTPMGPGRTVVVKGEVNANAKSFNVDLLAGKSKDIALHLNPRLNIKAFVRNSFLQESWGEEERNITSFPFSPGMYFEMIIYCDVREFKVAVNGVHSLEYKHRFKELSSIDTLEINGDIHLLEVRSW
# Experiments:
# Experiment in all cases: glycan array binding signal (z-score within array); higher = stronger binding
# Conditions in all cases: glycan notation: IUPAC condensed, linker removed
# [1] = molecular target: Gal(b1-4)GlcNAc
# How it was run: (§1)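 Glycan array data were curated from 3228 arrays in the Consortium for Functional Glycomics database and kept only where the protein sequence was available. Glycan names were converted to IUPAC-condensed notation, and columns mapping to the same glycan were averaged. The binding signal is a within-array Z-score, averaged across arrays of the same protein sequence at different concentrations or buffers and across linkers. Negative Z-scores can be read as non-binding.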
# [2] = molecular target: Gal(b1-4)GlcNAc(a1-6)Gal(b1-4)GlcNAc
# How it was run: as §1
# [3] = molecular target: Gal(b1-4)GlcNAc(b1-2)Man
# How it was run: as §1
# [4] = molecular target: Gal(b1-4)GlcNAc(b1-2)Man(a1-3)Man(b1-4)GlcNAc(b1-4)GlcNAc
# How it was run: as §1
# [5] = molecular target: Gal(b1-4)GlcNAc(b1-2)Man(a1-3)[Gal(b1-4)GlcNAc(b1-2)Man(a1-6)]Man(b1-4)GlcNAc(b1-4)GlcNAc
# How it was run: as §1
# [6] = molecular target: Gal(b1-4)GlcNAc(b1-2)Man(a1-3)[Gal(b1-4)GlcNAc(b1-2)Man(a1-6)]Man(b1-4)GlcNAc(b1-4)[Fuc(a1-6)]GlcNAc
# How it was run: as §1
# [7] = molecular target: Gal(b1-4)GlcNAc(b1-2)Man(a1-3)[Gal(b1-4)GlcNAc(b1-2)Man(a1-6)][Gal(b1-4)GlcNAc(b1-4)]Man(b1-4)GlcNAc(b1-4)[Fuc(a1-6)]GlcNAc
# How it was run: as §1
# [8] = molecular target: Gal(b1-4)GlcNAc(b1-2)Man(a1-3)[Gal(b1-4)GlcNAc(b1-2)Man(a1-6)][GlcNAc(b1-4)]Man(b1-4)GlcNAc(b1-4)[Fuc(a1-6)]GlcNAc
# How it was run: as §1
# [9] = molecular target: Gal(b1-4)GlcNAc(b1-2)Man(a1-3)[GlcNAc(b1-2)Man(a1-6)]Man(b1-4)GlcNAc(b1-4)GlcNAc
# How it was run: as §1
# [10] = molecular target: Gal(b1-4)GlcNAc(b1-2)Man(a1-3)[GlcNAc(b1-4)][Gal(b1-4)GlcNAc(b1-2)Man(a1-6)]Man(b1-4)GlcNAc(b1-4)GlcNAc
# How it was run: as §1
# [11] = molecular target: Gal(b1-4)GlcNAc(b1-2)Man(a1-3)[Man(a1-6)]Man(b1-4)GlcNAc(b1-4)GlcNAc
# How it was run: as §1
# [12] = molecular target: Gal(b1-4)GlcNAc(b1-2)Man(a1-6)Man(b1-4)GlcNAc(b1-4)GlcNAc
# How it was run: as §1
# [13] = molecular target: Gal(b1-4)GlcNAc(b1-2)Man(a1-6)[GlcNAc(b1-2)Man(a1-3)]Man(b1-4)GlcNAc(b1-4)GlcNAc
# How it was run: as §1
# [14] = molecular target: Gal(b1-4)GlcNAc(b1-2)Man(a1-6)[Man(a1-3)]Man(b1-4)GlcNAc(b1-4)GlcNAc
# How it was run: as §1
# [15] = molecular target: Gal(b1-4)GlcNAc(b1-2)[Gal(b1-4)GlcNAc(b1-4)]Man(a1-3)[Gal(b1-4)GlcNAc(b1-2)Man(a1-6)]Man(b1-4)GlcNAc(b1-4)GlcNAc
# How it was run: as §1
# [16] = molecular target: Gal(b1-4)GlcNAc(b1-2)[Gal(b1-4)GlcNAc(b1-4)]Man(a1-3)[Gal(b1-4)GlcNAc(b1-2)[Gal(b1-4)GlcNAc(b1-6)]Man(a1-6)]Man(b1-4)GlcNAc(b1-4)GlcNAc
# How it was run: as §1
# [17] = molecular target: Gal(b1-4)GlcNAc(b1-2)[Gal(b1-4)GlcNAc(b1-4)]Man(a1-3)[GlcNAc(b1-4)][Gal(b1-4)GlcNAc(b1-2)Man(a1-6)]Man(b1-4)GlcNAc(b1-4)GlcNAc
# How it was run: as §1
# [18] = molecular target: Gal(b1-4)GlcNAc(b1-2)[Gal(b1-4)GlcNAc(b1-4)]Man(a1-3)[GlcNAc(b1-4)][Gal(b1-4)GlcNAc(b1-2)[Gal(b1-4)GlcNAc(b1-6)]Man(a1-6)]Man(b1-4)GlcNAc(b1-4)GlcNAc
# How it was run: as §1
# [19] = molecular target: Gal(b1-4)GlcNAc(b1-2)[Gal(b1-4)GlcNAc(b1-6)]Man(a1-6)[Gal(b1-4)GlcNAc(b1-2)Man(a1-3)]Man(b1-4)GlcNAc(b1-4)GlcNAc
# How it was run: as §1
binder,measurement,setting,value
B1,glycan array binding signal (z-score),[1],-0.376
same,glycan array binding signal (z-score),[2],-0.36
same,glycan array binding signal (z-score),[3],-0.268
same,glycan array binding signal (z-score),[4],-0.357
same,glycan array binding signal (z-score),[5],-0.486
same,glycan array binding signal (z-score),[6],-0.357
same,glycan array binding signal (z-score),[7],-0.353
same,glycan array binding signal (z-score),[8],-0.352
same,glycan array binding signal (z-score),[9],-0.357
same,glycan array binding signal (z-score),[10],-0.356
same,glycan array binding signal (z-score),[11],-0.357
same,glycan array binding signal (z-score),[12],-0.355
same,glycan array binding signal (z-score),[13],-0.354
same,glycan array binding signal (z-score),[14],-0.358
same,glycan array binding signal (z-score),[15],-0.344
same,glycan array binding signal (z-score),[16],-0.347
same,glycan array binding signal (z-score),[17],-0.347
same,glycan array binding signal (z-score),[18],-0.33
same,glycan array binding signal (z-score),[19],-0.343
